Source: the supplement of paper PMC7826260
Some of the results follow. One pool of 16,384 single-stranded DNAs met each Rep nickase domain in vitro (3 µM enzyme, 1 h, 37 °C); shown is the middle of each 90-letter strand. Numbers give uncut DNA relative to the enzyme-free pool, as log2; strong cutting gives strongly negative numbers. There is no active / inactive call. Shares of all reads are compared; uncut strands gain when others are lost, and binding without cutting may add a little.

Columns and labels:
Test in all cases: uncleaved DNA left, log2 of reads against the no-enzyme library (log2 ratio); higher = less cleavage (more negative = more Rep cleavage of the k-mer); sequences stand for … in CTCGTCCG…ACCGGAGA
[1] = test system: T1, Rep nickase domain of Muscovy duck circovirus
T1 sequence (residues 1-111, tag not shown): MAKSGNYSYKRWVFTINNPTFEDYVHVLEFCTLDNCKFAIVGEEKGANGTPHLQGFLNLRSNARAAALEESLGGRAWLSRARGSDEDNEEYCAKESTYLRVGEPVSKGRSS
Protocol: (§1)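 A pool of 90-nt single-stranded DNAs with seven random bases just before the constant AC of the nick site (name = the seven bases) was cut by 3 µM recombinant His6-SUMO-tagged Rep nickase domain (300 nM DNA, 50 mM HEPES pH 8.0, 50 mM NaCl, 1 mM MnCl2, 1 h, 37 °C, three replicates). Uncut DNA was amplified and sequenced.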

[2] = test system: T2, Rep nickase domain of banana bunchy top virus
T2 sequence (residues 1-94, tag not shown): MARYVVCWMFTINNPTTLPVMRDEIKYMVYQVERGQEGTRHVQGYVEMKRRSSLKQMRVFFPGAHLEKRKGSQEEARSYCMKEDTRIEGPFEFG
Protocol: as §1

[3] = test system: T3, Rep nickase domain of cabbage leaf curl virus
T3 sequence (residues 1-116, tag not shown): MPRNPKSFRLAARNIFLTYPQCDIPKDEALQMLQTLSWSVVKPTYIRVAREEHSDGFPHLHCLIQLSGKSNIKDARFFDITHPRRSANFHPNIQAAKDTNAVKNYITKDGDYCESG
Protocol: as §1

[4] = test system: T4, Rep nickase domain of chickpea chlorotic dwarf virus
T4 sequence (residues 1-124, tag not shown): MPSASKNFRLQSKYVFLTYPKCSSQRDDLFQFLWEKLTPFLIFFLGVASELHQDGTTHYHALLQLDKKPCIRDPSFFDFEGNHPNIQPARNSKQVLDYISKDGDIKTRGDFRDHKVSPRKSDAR
Protocol: as §1

[5] = test system: T5, Rep nickase domain of faba bean necrotic yellows virus
T5 sequence (residues 1-98, tag not shown): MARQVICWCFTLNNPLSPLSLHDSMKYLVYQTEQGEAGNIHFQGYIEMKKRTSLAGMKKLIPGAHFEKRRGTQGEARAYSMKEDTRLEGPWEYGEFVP
Protocol: as §1

[6] = test system: T6, Rep nickase domain of maize striate mosaic virus
T6 sequence (residues 1-117, tag not shown): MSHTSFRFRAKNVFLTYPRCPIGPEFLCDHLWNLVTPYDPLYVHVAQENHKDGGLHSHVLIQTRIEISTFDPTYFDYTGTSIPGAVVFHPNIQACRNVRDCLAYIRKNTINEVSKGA
Protocol: as §1

[7] = test system: T7, Rep nickase domain of porcine circovirus 2
T7 sequence (residues 2-116, tag not shown): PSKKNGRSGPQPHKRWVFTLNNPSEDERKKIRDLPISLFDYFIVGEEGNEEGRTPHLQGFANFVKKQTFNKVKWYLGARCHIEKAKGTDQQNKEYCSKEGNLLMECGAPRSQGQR
Protocol: as §1

[8] = test system: T8, Rep nickase domain of tomato yellow leaf curl virus
T8 sequence (residues 1-136, tag not shown): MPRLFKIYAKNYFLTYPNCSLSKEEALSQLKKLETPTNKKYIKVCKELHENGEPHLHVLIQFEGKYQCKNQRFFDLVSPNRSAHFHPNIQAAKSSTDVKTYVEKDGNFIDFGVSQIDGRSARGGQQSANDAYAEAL
Protocol: as §1

[9] = test system: T9, Rep nickase domain of wheat dwarf virus
T9 sequence (residues 1-137, tag not shown): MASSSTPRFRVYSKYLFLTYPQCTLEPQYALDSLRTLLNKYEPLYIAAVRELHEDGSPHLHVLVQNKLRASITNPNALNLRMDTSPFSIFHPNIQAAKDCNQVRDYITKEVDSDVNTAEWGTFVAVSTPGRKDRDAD
Protocol: as §1

ATCTCTT
uncleaved DNA left (log2) [1]: -2.11 | uncleaved DNA left (log2) [2]: -1.09 | uncleaved DNA left (log2) [3]: -0.456 | uncleaved DNA left (log2) [4]: -2.47 | uncleaved DNA left (log2) [5]: -0.36 | uncleaved DNA left (log2) [6]: -0.264 | uncleaved DNA left (log2) [7]: -3.25 | uncleaved DNA left (log2) [8]: -0.166 | uncleaved DNA left (log2) [9]: -0.224

TGGGCCA
uncleaved DNA left (log2) [1]: 0.177 | uncleaved DNA left (log2) [2]: 0.189 | uncleaved DNA left (log2) [3]: 0.847 | uncleaved DNA left (log2) [4]: 1.79 | uncleaved DNA left (log2) [5]: 0.0196 | uncleaved DNA left (log2) [6]: 2.14 | uncleaved DNA left (log2) [7]: 0.289 | uncleaved DNA left (log2) [8]: 0.151 | uncleaved DNA left (log2) [9]: 0.203

CCATTAG
uncleaved DNA left (log2) [1]: 0.0466 | uncleaved DNA left (log2) [2]: -0.0425 | uncleaved DNA left (log2) [3]: -0.419 | uncleaved DNA left (log2) [4]: 0.556 | uncleaved DNA left (log2) [5]: 0.0542 | uncleaved DNA left (log2) [6]: -0.362 | uncleaved DNA left (log2) [7]: 0.154 | uncleaved DNA left (log2) [8]: 0.0512 | uncleaved DNA left (log2) [9]: -0.199

ACCGCCG
uncleaved DNA left (log2) [1]: -0.0549 | uncleaved DNA left (log2) [2]: -0.021 | uncleaved DNA left (log2) [3]: -0.469 | uncleaved DNA left (log2) [4]: 0.648 | uncleaved DNA left (log2) [5]: -0.0616 | uncleaved DNA left (log2) [6]: -0.0613 | uncleaved DNA left (log2) [7]: 0.0842 | uncleaved DNA left (log2) [8]: -0.0392 | uncleaved DNA left (log2) [9]: -0.183

TGGGGCG
uncleaved DNA left (log2) [1]: -0.0159 | uncleaved DNA left (log2) [2]: 0.0224 | uncleaved DNA left (log2) [3]: -0.37 | uncleaved DNA left (log2) [4]: 0.76 | uncleaved DNA left (log2) [5]: 0.0439 | uncleaved DNA left (log2) [6]: -0.204 | uncleaved DNA left (log2) [7]: 0.249 | uncleaved DNA left (log2) [8]: 0.0884 | uncleaved DNA left (log2) [9]: -0.000239

TCGCACC
uncleaved DNA left (log2) [1]: -0.0374 | uncleaved DNA left (log2) [2]: -0.127 | uncleaved DNA left (log2) [3]: 0.0184 | uncleaved DNA left (log2) [4]: -0.327 | uncleaved DNA left (log2) [5]: -0.114 | uncleaved DNA left (log2) [6]: -0.553 | uncleaved DNA left (log2) [7]: -0.272 | uncleaved DNA left (log2) [8]: -0.0967 | uncleaved DNA left (log2) [9]: -0.0909

CGAATCA
uncleaved DNA left (log2) [1]: 0.0613 | uncleaved DNA left (log2) [2]: 0.256 | uncleaved DNA left (log2) [3]: 0.31 | uncleaved DNA left (log2) [4]: -0.196 | uncleaved DNA left (log2) [5]: 0.0481 | uncleaved DNA left (log2) [6]: 0.364 | uncleaved DNA left (log2) [7]: 0.163 | uncleaved DNA left (log2) [8]: 0.282 | uncleaved DNA left (log2) [9]: 0.354

TCCCCCT
uncleaved DNA left (log2) [1]: -0.0111 | uncleaved DNA left (log2) [2]: -0.167 | uncleaved DNA left (log2) [3]: -0.115 | uncleaved DNA left (log2) [4]: -1.67 | uncleaved DNA left (log2) [5]: 0.118 | uncleaved DNA left (log2) [6]: -0.354 | uncleaved DNA left (log2) [7]: -0.392 | uncleaved DNA left (log2) [8]: -0.0809 | uncleaved DNA left (log2) [9]: -0.052

TACAAGG
uncleaved DNA left (log2) [1]: 0.101 | uncleaved DNA left (log2) [2]: 0.0615 | uncleaved DNA left (log2) [3]: 0.409 | uncleaved DNA left (log2) [4]: 1.14 | uncleaved DNA left (log2) [5]: 0.074 | uncleaved DNA left (log2) [6]: 1.1 | uncleaved DNA left (log2) [7]: 0.143 | uncleaved DNA left (log2) [8]: 0.0279 | uncleaved DNA left (log2) [9]: 0.0269

GTTGGGA
uncleaved DNA left (log2) [1]: 0.0551 | uncleaved DNA left (log2) [2]: 0.176 | uncleaved DNA left (log2) [3]: 0.331 | uncleaved DNA left (log2) [4]: 0.882 | uncleaved DNA left (log2) [5]: 0.0178 | uncleaved DNA left (log2) [6]: 0.925 | uncleaved DNA left (log2) [7]: 0.321 | uncleaved DNA left (log2) [8]: 0.0945 | uncleaved DNA left (log2) [9]: 0.171

CAGGGGA
uncleaved DNA left (log2) [1]: 0.0931 | uncleaved DNA left (log2) [2]: 0.0817 | uncleaved DNA left (log2) [3]: 0.61 | uncleaved DNA left (log2) [4]: 1.04 | uncleaved DNA left (log2) [5]: 0.11 | uncleaved DNA left (log2) [6]: 1.5 | uncleaved DNA left (log2) [7]: 0.208 | uncleaved DNA left (log2) [8]: 0.0141 | uncleaved DNA left (log2) [9]: 0.0589

GATATCA
uncleaved DNA left (log2) [1]: 0.105 | uncleaved DNA left (log2) [2]: 0.235 | uncleaved DNA left (log2) [3]: 0.306 | uncleaved DNA left (log2) [4]: 0.612 | uncleaved DNA left (log2) [5]: 0.0368 | uncleaved DNA left (log2) [6]: 1.05 | uncleaved DNA left (log2) [7]: 0.0941 | uncleaved DNA left (log2) [8]: 0.137 | uncleaved DNA left (log2) [9]: 0.285

TCAAAAT
uncleaved DNA left (log2) [1]: 0.276 | uncleaved DNA left (log2) [2]: 0.113 | uncleaved DNA left (log2) [3]: 0.092 | uncleaved DNA left (log2) [4]: -0.809 | uncleaved DNA left (log2) [5]: 0.062 | uncleaved DNA left (log2) [6]: -0.423 | uncleaved DNA left (log2) [7]: -0.0352 | uncleaved DNA left (log2) [8]: 0.134 | uncleaved DNA left (log2) [9]: 0.138

ATCCTGC
uncleaved DNA left (log2) [1]: 0.0533 | uncleaved DNA left (log2) [2]: -0.0195 | uncleaved DNA left (log2) [3]: -0.595 | uncleaved DNA left (log2) [4]: -0.484 | uncleaved DNA left (log2) [5]: 0.0529 | uncleaved DNA left (log2) [6]: -1.09 | uncleaved DNA left (log2) [7]: 0.0987 | uncleaved DNA left (log2) [8]: 0.00484 | uncleaved DNA left (log2) [9]: -0.216

TCCATAT
uncleaved DNA left (log2) [1]: 0.159 | uncleaved DNA left (log2) [2]: -0.0625 | uncleaved DNA left (log2) [3]: 0.127 | uncleaved DNA left (log2) [4]: -0.65 | uncleaved DNA left (log2) [5]: 0.0818 | uncleaved DNA left (log2) [6]: -0.543 | uncleaved DNA left (log2) [7]: -0.00799 | uncleaved DNA left (log2) [8]: 0.00643 | uncleaved DNA left (log2) [9]: -0.0138
